The text below walks through data of patent publication US20230399408A1 (AB THERAPEUTICS, published 2023).

The target of assay [1] is T1, cMET (UniProt P08581 25-932).
T1 construct: also called cMET protein
The assay is described as follows: BLI (Probelife), BsAb conc. 12.7 nM.

In assay [2] the target is T1, cMET. The assay is described as follows: BLI (Probelife), BsAb conc. 4.23 nM.
The target of assay [3] is T1, cMET. Nature of the assay: separate experiment, method not restated (BLI in this example), cMET binding.
The target of assay [4] is T1, cMET. The assay is described as follows: BLI (Probelife), BsAb conc. 1.41 nM.
The target of assay [5] is T1, cMET. The assay is described as follows: BLI (Probelife), BsAb conc. 114 nM.
A further assay addresses T2, c-MET-His tag protein (human, UniProt P08581 25-932).
T2 construct: also called cMET-HIS tagged; not shown: His tag
The assay is described as follows: titration ELISA, c-MET-His coated.

The target in assay [6] is T1, cMET. The assay is described as follows: BLI (Probelife), BsAb conc. 38.1 nM.

T1 sequence (P08581 25-932): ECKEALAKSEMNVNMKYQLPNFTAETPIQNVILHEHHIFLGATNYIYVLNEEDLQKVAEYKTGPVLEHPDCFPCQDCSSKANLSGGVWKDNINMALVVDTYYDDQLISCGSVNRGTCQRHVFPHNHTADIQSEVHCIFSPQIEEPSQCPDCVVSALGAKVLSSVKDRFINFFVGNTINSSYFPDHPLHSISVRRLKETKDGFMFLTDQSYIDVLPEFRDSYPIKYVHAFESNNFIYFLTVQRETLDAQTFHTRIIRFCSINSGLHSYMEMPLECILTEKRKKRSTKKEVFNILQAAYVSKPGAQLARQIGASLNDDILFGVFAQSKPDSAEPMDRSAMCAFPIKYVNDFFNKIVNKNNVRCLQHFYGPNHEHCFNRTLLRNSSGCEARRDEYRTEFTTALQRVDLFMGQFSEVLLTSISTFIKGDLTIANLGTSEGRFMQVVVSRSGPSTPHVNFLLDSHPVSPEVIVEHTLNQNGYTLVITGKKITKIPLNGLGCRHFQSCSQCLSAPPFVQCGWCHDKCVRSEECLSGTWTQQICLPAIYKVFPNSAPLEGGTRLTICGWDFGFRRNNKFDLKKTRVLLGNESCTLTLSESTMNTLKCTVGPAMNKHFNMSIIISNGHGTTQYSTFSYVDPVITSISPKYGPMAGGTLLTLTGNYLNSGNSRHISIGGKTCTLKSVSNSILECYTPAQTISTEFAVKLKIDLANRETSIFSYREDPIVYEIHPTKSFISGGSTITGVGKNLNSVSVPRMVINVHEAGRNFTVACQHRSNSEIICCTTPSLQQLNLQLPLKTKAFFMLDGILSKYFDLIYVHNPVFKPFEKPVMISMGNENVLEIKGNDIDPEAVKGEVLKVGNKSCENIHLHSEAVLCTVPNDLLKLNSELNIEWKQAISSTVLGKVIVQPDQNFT
Chain of c-MET-His tag protein (P08581 25-932 limits assumed): as the sequence (P08581 25-932) above

B1: 1H1-cMET/EGFR-Fc(WT)-V3 (bispecific antibody)
heavy: QVQLVESGGGLVQPGGSLKLSCAVSASLFSINTMGWFRQGPGKEREFVAAISWSGGNYYATFARGRFTISSEDAKDTVYLQMDNLKPEDTAVYFCGADRWGTGSMNAPDYDYWGRGTLVTVSSGGGGSGGGGSGGGGSQVQLVESGGGVVQPGRSLRLSCAASGFTFSTYGMHWVRQAPGKGLEWVAVIWDDGSYKYYGDSVKGRFTISRDNSKNTLYLQMNSLRAEDTAVYYCARDGITMVRGVMKDYFDYWGQGTLVTVSS[omitted - human IgG1 constant region]
light: AIQLTQSPSSLSASVGDRVTITCRASQDISSALVWYQQKPGKAPKLLIYDASSLESGVPSRFSGSESGTDFTLTISSLQPEDFATYYCQQFNSYPLTFGGGTKVEIKRTVAAPSVFIFPPSDEQLKSGTASVVCLLNNFYPREAKVQWKVDNALQSGNSQESVTEQDSKDSTYSLSSTLTLSKADYEKHKVYACEVTHQGLSSPVTKSFNRGEC
notes: also called 1H1 v3; 1H1cMET/EGFR-Fc(WT) BsAb
On to B1, for which the dissociation constant (Kd) worked out at 0.317 nM in the assay with cMET [1]; 0.317 nM with cMET [2]; 0.239 nM in the assay with cMET [3]; 0.317 nM with cMET [4]; 0.317 nM with cMET [5]; 0.317 nM in the assay with cMET [6]. Moreover, the off-rate (koff) with cMET [1], with cMET [2], in the assay with cMET [4] and in the assay with cMET [6] was 0.000785 s⁻¹ throughout. The association rate constant (kon) in the assay with cMET [1], in the assay with cMET [2], with cMET [4], with cMET [5] and with cMET [6] was 2.48e+06 M⁻¹ s⁻¹ each time. Further, in the assay with c-MET-His tag protein, the EC50 stood at 8.61 ng/mL.

In general, Kd refers to the free concentration of one partner at which half of the binding sites on the other are occupied at equilibrium, for simple one-to-one binding. A lower Kd goes with tighter binding. As a reminder, the koff is the rate constant with which the complex falls apart. Read a low koff as slow dissociation. For orientation: kon means a measure of how fast the partners come together. The low end stands for slow association, the high end for fast association. As usually defined, the EC50 is the concentration that produces a half-maximal response. Low values mean a more potent agent, high ones a less potent agent.
